In PMC5429823:
These are yes or no findings as the source states them, for the method shown. Binding seen in cells or lysates may run through a third protein. Some entries that bind do so weakly or less than the wild type. One block for each substance: values may come before it.

The chains behind the UniProt entries cited, without tags or fusion partners. Where a name states a change or a piece, a line headed by the entry shows the natural chain unless it says otherwise.
UniProt Q498D1: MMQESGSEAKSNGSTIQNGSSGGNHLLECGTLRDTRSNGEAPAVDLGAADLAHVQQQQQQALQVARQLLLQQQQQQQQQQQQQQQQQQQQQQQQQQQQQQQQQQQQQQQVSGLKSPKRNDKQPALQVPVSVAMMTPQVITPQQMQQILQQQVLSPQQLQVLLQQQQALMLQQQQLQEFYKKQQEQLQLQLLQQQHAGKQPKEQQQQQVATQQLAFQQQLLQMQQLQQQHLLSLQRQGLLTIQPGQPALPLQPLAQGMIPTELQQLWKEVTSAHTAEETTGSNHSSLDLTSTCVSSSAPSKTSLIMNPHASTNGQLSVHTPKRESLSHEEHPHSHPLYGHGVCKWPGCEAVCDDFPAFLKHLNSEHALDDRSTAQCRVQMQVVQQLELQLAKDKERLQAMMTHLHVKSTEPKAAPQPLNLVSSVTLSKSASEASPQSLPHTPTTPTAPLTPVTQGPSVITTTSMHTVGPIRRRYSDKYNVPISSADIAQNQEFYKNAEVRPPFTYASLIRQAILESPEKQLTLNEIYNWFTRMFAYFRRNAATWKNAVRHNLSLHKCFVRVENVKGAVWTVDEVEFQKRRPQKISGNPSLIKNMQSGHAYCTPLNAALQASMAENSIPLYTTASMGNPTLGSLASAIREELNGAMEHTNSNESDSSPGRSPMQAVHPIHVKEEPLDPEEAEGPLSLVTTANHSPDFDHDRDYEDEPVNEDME
UniProt Q99P99: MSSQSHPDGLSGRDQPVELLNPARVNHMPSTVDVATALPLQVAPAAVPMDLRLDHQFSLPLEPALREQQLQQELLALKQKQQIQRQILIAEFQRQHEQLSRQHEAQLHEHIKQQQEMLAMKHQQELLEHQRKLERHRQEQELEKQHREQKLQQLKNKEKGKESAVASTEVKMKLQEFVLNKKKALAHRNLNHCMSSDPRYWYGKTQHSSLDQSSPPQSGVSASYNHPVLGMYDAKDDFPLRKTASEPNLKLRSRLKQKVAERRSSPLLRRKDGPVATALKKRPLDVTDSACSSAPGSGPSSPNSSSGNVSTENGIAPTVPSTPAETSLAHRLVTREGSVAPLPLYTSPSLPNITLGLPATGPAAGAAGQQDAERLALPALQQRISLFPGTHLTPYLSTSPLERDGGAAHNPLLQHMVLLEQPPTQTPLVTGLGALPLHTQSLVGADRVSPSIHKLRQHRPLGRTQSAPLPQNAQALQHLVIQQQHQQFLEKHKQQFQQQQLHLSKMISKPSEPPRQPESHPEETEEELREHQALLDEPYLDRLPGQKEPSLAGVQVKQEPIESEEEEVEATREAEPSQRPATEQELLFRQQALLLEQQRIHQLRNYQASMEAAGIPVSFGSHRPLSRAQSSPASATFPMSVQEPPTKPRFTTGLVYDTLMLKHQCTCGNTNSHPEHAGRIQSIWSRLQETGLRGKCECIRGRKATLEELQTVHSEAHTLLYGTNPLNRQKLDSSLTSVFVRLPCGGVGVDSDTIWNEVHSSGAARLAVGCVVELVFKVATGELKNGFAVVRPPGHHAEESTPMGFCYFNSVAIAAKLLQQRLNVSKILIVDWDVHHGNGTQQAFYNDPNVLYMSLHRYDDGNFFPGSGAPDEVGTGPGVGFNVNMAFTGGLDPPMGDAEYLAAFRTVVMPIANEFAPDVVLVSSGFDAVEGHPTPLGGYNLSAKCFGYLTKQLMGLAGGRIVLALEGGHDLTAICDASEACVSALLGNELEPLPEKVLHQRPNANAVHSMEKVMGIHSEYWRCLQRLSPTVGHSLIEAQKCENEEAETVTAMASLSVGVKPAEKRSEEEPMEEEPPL

What was measured:
[1] = target: DeSUMOylated GST-FOXP1 (rat) (UniProt Q498D1); test: pull-down; SUMOylated or Senp1-deSUMOylated GST-FOXP1 immobilised on glutathione beads, incubated with cortical neuronal lysates for 1 hr, extensive washing, western blot; only the target purified
[2] = target: Ctbp1 (rat (endogenous in cultured cortical neurons)) (UniProt Q9Z2F5); test: co-IP; Cultured cortical neurons with or without glutamate stimulation; PFA fixation step before co-immunoprecipitation of the Ctbp1 complex to prevent deSUMOylation; immunoblot for FOXP1, Ctbp1, LSD1, HDAC2
[3] = target: Ctbp1 (rat (endogenous in cultured cortical neurons)) (UniProt Q9Z2F5); test: co-IP; DIV7 cortical neuronal cultures lysed and immunoprecipitated with anti-Ctbp1 antibodies; immunoblot
[4] = target: TAP-FOXP1-K670R (rat) (UniProt Q498D1); test: pull-down; HEK293T co-transfected with TAP-FOXP1 variants and GFP-FOXP1; lysis in 0.5% TX-100, 150 mM NaCl, 25 mM Tris pH 7.5; cleared lysates on streptavidin beads 1 hr; immunoblot
[5] = target: TAP-FOXP1-WT (rat) (UniProt Q498D1); test: as above

binding [1]: binds weakly
Substance: Ctbp1 (from UniProt Q9Z2F5 1-430)

binding [2]: binds
binding [3]: binds
Substance: FOXP1 (endogenous, cortical neurons) (from UniProt Q498D1 1-711)

binding [4]: binds
binding [5]: binds
Substance: GFP-FOXP1 (from UniProt Q498D1 1-711)

binding [3]: no binding
Substance: class IIa histone de-acetylase HDAC4 (from UniProt Q99P99 1-1077)
